Measured values published in publication PMC2749851.
These are yes or no findings as the source states them, for the method shown. Binding seen in cells or lysates may run through a third protein. Some binding calls cover weakened binding; strength is not graded here. For some of these results: Where a sequence is shown, tags or fusion partners need not be part of it.

Assays:
[1] = target: Flag-HA-tagged CtBP2 (wild type) (UniProt P56545); experiment: co-IP; HeLa cells transfected with Flag-HA-tagged CtBP2 or RR-CtBP2 alone or with GFP-ZEB101 (also in increasing amounts) or GFP-Cter; lysates immunoprecipitated with Flag antibody beads; Western blots
[2] = target: Flag-HA-tagged RR-CtBP2 (R147L/R169L) (UniProt P56545); experiment: as above
[3] = target: Flag-HA-tagged CtBP2 (wild type) (UniProt P56545); experiment: co-IP; Flag-HA-tagged CtBP proteins transiently expressed in 293 cells; lysates immunoprecipitated with the Flag antibody; Western blots of endogenous co-factors
[4] = target: Flag-HA-tagged GG-CtBP2 (G189A/G192A) (UniProt P56545); experiment: as above
[5] = target: Flag-HA-tagged RR-CtBP2 (R147L/R169L) (UniProt P56545); experiment: as above

Row | binding [1] | binding [2] | binding [3] | binding [4] | binding [5] | Binder
1 | binds | binds | – | – | – | GFP-ZEB101 (domain or fragment, UniProt P37275-1 680-780) PLKMTNSPVLPVGSTTNGSRSSTPSPSPLNLSSSRNTQGYLYTAEGAQEEPQVEPLDLSLPKQQGELLERSTITSVYQNSVYSVQEEPLNLSCAKKEPQKD
2 | binds | binds | binds | binds | binds | zinc-finger E-box binding homeobox (ZEB), endogenous (protein, UniProt P37275-1 1-1124) MADGPRCKRRKQANPRRNNVTNYNTVVETNSDSDDEDKLHIVEEESVTDAADCEGVPEDDLPTDQTVLPGRSSEREGNAKNCWEDDRKEGQEILGPEAQADEAGCTVKDDECESDAENEQNHDPNVEEFLQQQDTAVIFPEAPEEDQRQGTPEASGHDENGTPDAFSQLLTCPYCDRGYKRFTSLKEHIKYRHEKNEDNFSCSLCSYTFAYRTQLERHMTSHKSGRDQRHVTQSGCNRKFKCTECGKAFKYKHHLKEHLRIHSGEKPYECPNCKKRFSHSGSYSSHISSKKCISLIPVNGRPRTGLKTSQCSSPSLSASPGSPTRPQIRQKIENKPLQEQLSVNQIKTEPVDYEFKPIVVASGINCSTPLQNGVFTGGGPLQATSSPQGMVQAVVLPTVGLVSPISINLSDIQNVLKVAVDGNVIRQVLENNQANLASKEQETINASPIQQGGHSVISAISLPLVDQDGTTKIIINYSLEQPSQLQVVPQNLKKENPVATNSCKSEKLPEDLTVKSEKDKSFEGGVNDSTCLLCDDCPGDINALPELKHYDLKQPTQPPPLPAAEAEKPESSVSSATGDGNLSPSQPPLKNLLSLLKAYYALNAQPSAEELSKIADSVNLPLDVVKKWFEKMQAGQISVQSSEPSSPEPGKVNIPAKNNDQPQSANANEPQDSTVNLQSPLKMTNSPVLPVGSTTNGSRSSTPSPSPLNLSSSRNTQGYLYTAEGAQEEPQVEPLDLSLPKQQGELLERSTITSVYQNSVYSVQEEPLNLSCAKKEPQKDSCVTDSEPVVNVIPPSANPINIAIPTVTAQLPTIVAIADQNSVPCLRALAANKQTILIPQVAYTYSTTVSPAVQEPPLKVIQPNGNQDERQDTSSEGVSNVEDQNDSDSTPPKKKMRKTENGMYACDLCDKIFQKSSSLLRHKYEHTGKRPHECGICKKAFKHKHHLIEHMRLHSGEKPYQCDKCGKRFSHSGSYSQHMNHRYSYCKREAEERDSTEQEEAGPEILSNEHVGARASPSQGDSDERESLTREEDEDSEKEEEEEDKEMEELQEEKECEKPQGDEEEEEEEEEVEEEEVEEAENEGEEAKTEGLMKDDRAESQASSLGQKVGESSEQVSEEKTNEA
